# Experimental data as given in publication PMC12040169 (PLOS Biology, 2025).
# The list shows a part of the results.
# Test system: T1, C. trachomatis L2/434/Bu expressing GFP (CTL2-GFP)
# T1 construct: L2/434/Bu GFP intracellular growth in HeLa cells
# Design: species or system HeLa; C. trachomatis total inclusion area by high-content imaging, normalised to DMSO
# Details: total inclusion area; 28.5 h, 10 µM; inhibitor
# How it was run: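 Host cell viability was gauged from Hoechst-stained nuclei counts, while chlamydial growth was taken from total inclusion area and inclusion number per well. Cells were fixed and imaged by high-content microscopy once bulk GFP and resorufin fluorescence had been measured.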
row,SMILES,% of control remaining
1,Cc1ccc(C2CCCN2C(=O)c2ccc(=O)n(CC(=O)N(C)c3ccccc3)c2)cc1C (centres unmarked) [CBK285653],103.318
2,COc1ccc2c(c1)c(C(=O)N1CC(C)(C)C(C)(O)C1)c(C)n2C (centres unmarked) [CBK306896],77.8614
3,COc1cc(/C=N/NC(=O)CCN2CCN(C)CC2)cc2c1OCO2 [CBK261504],97.436
4,O=C(O)c1cccc(-c2cn3ccnc3c(N3CCOCC3)n2)c1 [CBK038053],134.119
5,COc1ccc(S(=O)(=O)N(CC(=O)Nc2ccc3c(c2)OCCO3)c2ccc(F)cc2)cc1 [CBK268584],101.269
6,O[C@H]1CN[C@H](c2nc(-c3ccc(OC(F)(F)F)cc3)no2)C1 [CBK288836],107.717
7,O=C(Cn1nc(C(=O)O)c2ccccc2c1=O)c1ccc(C2CCCCC2)cc1 [CBK297538],100.365
8,CCOc1cccc(-c2cn3ccnc3c(NCc3cc(OC)c(OC)c(OC)c3)n2)c1 [CBK066717],88.1743
9,COc1cc(C=C2SC(=S)N(CCCCCC(=O)O)C2=O)cc(OC)c1 [CBK297505],106.816
10,Cc1noc(C)c1CS(=O)(=O)Cc1ccc(Cl)cc1 [CBK034194],48.7163
11,COc1ccc(-c2cc(=O)[nH]c(=S)s2)cc1 [CBK288355],105.284
12,CC(C)(C)NC(=O)c1nn2c(c1Br)NC(c1cccs1)CC2C(F)(F)F (centres unmarked) [CBK307175],75.6689
13,Cc1ccc(CS(=O)(=O)NCCn2nc(C)c(C)c2C)cc1 [CBK281383],99.8173
14,CCn1c(SCC(=O)c2ccc(F)cc2)nnc1C(C)Oc1ccccc1 (centres unmarked) [CBK269695],73.5229
15,Cc1ccsc1CN(CCCO)Cc1cn(C)nc1C [CBK282983],94.7342
16,c1cc2c(cc1-c1nn3cnnc3s1)OCCO2 [CBK287866],81.069
17,Nc1ccc2cc(-c3ccsc3)cnc2n1 [CBK081167],90.5904
18,Oc1cccc(-c2cn3ccnc3c(NC3CC3)n2)c1 [CBK038076],74.199
19,COc1cc(CNc2cncc(-c3cccc(NC(C)=O)c3)n2)cc(OC)c1OC [CBK066133],127.239
20,Cc1nc(C)c(C(=O)N2CCCC(c3cc4cccnc4[nH]3)C2)s1 (centres unmarked) [CBK284995],96.5753
21,CC(C)CN1CCC2(CC=CCN(Cc3ccc(F)cc3)C2=O)CC1 [CBK285521],93.8014
22,COc1ccc(Cc2cccc(C3CCN(C(=O)Cc4ccc(F)cc4)CC3)n2)cc1 [CBK286225],92.5949
23,Cn1c(=O)n(CC(=O)OCc2ccccc2)c2cccnc21 [CBK284019],75.0599
24,Cc1ccc(C)c(NC(=O)C(C)Sc2nc3ccccc3nc2C)c1 (centres unmarked) [CBK296744],98.8137
25,CN1CCN(c2ccc(S(=O)(=O)Nc3cc(C(=O)O)cc(C(=O)O)c3)cc2[N+](=O)[O-])CC1 [CBK263862],92.1799
26,N#Cc1cnc2ccccc2c1N1CCC(C(=O)O)CC1 [CBK288050],94.4901
27,CC1=NN(c2ccccc2)C(=O)/C1=C1/C(=O)Nc2c(C)cc(Br)cc21 [CBK263950],116.601

row,SMILES,% of control remaining
1,Cc1n[nH]c(C)c1Sc1n[nH]c(=O)[nH]c1=O [CBK027833],76.1667
2,Cc1cc(Cl)cc(Cl)c1S(=O)(=O)Nc1nc(-c2cccnc2)cs1 [CBK200035],67.5383
3,CC1CCN(Cc2ccc(-c3ccc(CC(=O)NCc4ccc(C#N)cc4)cn3)cc2)CC1 [CBK158409],90.2345
4,Cc1nc(CC(=O)N2CCCC(c3cccc(Cc4ccc(Cl)cc4)n3)C2)cs1 (centres unmarked) [CBK286505],66.4056
5,CCc1c(C)nc(SC(C(=O)O)c2ccccc2)c(C#N)c1C (centres unmarked) [CBK270174],74.4428
6,CC(=O)Nc1ccc(NC2SC(=O)N(c3ccccc3)C2=O)cc1 (centres unmarked) [CBK085110],132.54
7,Cn1cc(CN[C@@H]2CCC(=O)N[C@H]2c2cc(F)cc(F)c2)cn1 [CBK282913],83.299
8,CC(=O)Nc1cccc(-c2cncc(NCCc3ccccn3)n2)c1 [CBK065359],96.1268
9,CCOC(=O)N1CCN(CCC(=O)Nc2ccc3c(c2)CCC3)CC1 [CBK264220],95.5468
10,C(=N\N=C(/c1ccccc1)C12CN3CN(CN(C3)C1)C2)/c1ccc2c(c1)OCO2 [CBK261816],104.122
11,CCc1nc(CN2CCCC(NCc3ccc(C(N)=O)cc3)C2)no1 (centres unmarked) [CBK305373],72.9735
12,Cc1cccc(Oc2ccccc2NS(=O)(=O)c2ccc3c(c2)N(CC(=O)O)C(=O)CO3)c1 [CBK295287],93.5571
13,CC(C)Nc1cc(OCCCc2ccncc2)ncn1 [CBK115886],82.2507
14,COc1ccc(OC)c(-n2c(=O)[nH]c3ccccc3c2=O)c1 [CBK287825],63.6246
15,O=C1c2ccccc2C(=O)N1CCN1CCN(Cc2ccccc2)CC1 [CBK074813],66.6013
16,C[C@H]1CN2C[C@H](O)CC2CN1Cc1ccc(Br)s1 (some centres unmarked) [CBK285439],106.357
17,O=C(O)c1ccc(CN2C(=O)COc3ccccc32)o1 [CBK270276],119.98
18,CCc1ccc(CN(C)C(=O)COC(=O)c2cc(-c3ccccc3)nc3onc(C)c23)cc1 [CBK295334],97.0123
19,Cc1ccn(-c2ccc(N3CCNCC3)nn2)n1 [CBK304680],95.4378
20,COc1cccc(CC(=O)N2CCC(Cc3ccccc3-c3cccs3)(C(N)=O)CC2)c1 [CBK285908],102.972
21,O=C(Cc1ccccc1)N1CCC(c2nc3ccccc3s2)CC1 [CBK070145],95.3448
22,CCc1cccc(C)c1NC(=O)CN(c1ccc(Br)c(C)c1)S(C)(=O)=O [CBK267935],119.949
23,CCCCNc1cc(N(C)Cc2cnn(C)c2)nc(N)n1 [CBK304167],7.8122
24,CN(C)C(=O)c1cc(Br)cnc1NCc1ccc2c(c1)OCO2 [CBK076293],55.442
25,O=C(c1nc2ccccc2s1)C1CCN(C(=O)c2ccco2)CC1 [CBK284234],83.7658
26,COc1cc(CNS(=O)(=O)c2cc3c(NCCN(C)C)nccc3s2)cc(OC)c1OC [CBK038246C],89.9945
27,CCOC(=O)[C@@]12CC=CCN(C(=O)c3ccco3)[C@@H]1CCC2 [CBK284574],104.825

row,SMILES,% of control remaining
1,COCC(C)NC(=O)c1nn(-c2nc3ccccc3s2)c2ccccc12 (centres unmarked) [CBK048488],99.4431
2,CCN(CC)S(=O)(=O)c1ccc(CNC(=O)Cc2ccc(Cl)cc2)cc1 [CBK306188],85.5606
3,Cc1ccccc1OCc1nnc(SCC(=O)c2ccc3c(c2)Cc2ccccc2-3)n1C [CBK265829],117.875
4,Cc1ccccc1NC(=O)c1cnc2n(c1=O)CCS2 [CBK287374],106.878
5,CCCc1n[nH]c(C2CN(CCn3cccn3)CCO2)n1 (centres unmarked) [CBK304842],24.1123
6,COc1ccc(NC(=O)c2ccccc2CCc2ccccc2)c([N+](=O)[O-])c1 [CBK268632],89.0265
7,Cn1cc(CCNC(=O)N(Cc2ccccn2)CC2CCCO2)cn1 (centres unmarked) [CBK306973],85.0313
8,COc1ccc(NC(=O)CC2SC(=N)NC2=O)c([N+](=O)[O-])c1 (centres unmarked) [CBK265334],96.0681
9,CCCC1(OC(=O)Nc2ccc(Cl)cc2)CCCCC1 [CBK026295],67.6737
10,O=C(O)CCc1ccc(-c2cn3ccnc3c(Nc3ccc(Br)cc3)n2)cc1 [CBK038058],102.927
11,O=C(COc1ccc(-c2ccccc2)cc1)N1CCN(S(=O)(=O)c2ccccc2[N+](=O)[O-])CC1 [CBK264154],121.625
12,Clc1cncc(OC(c2ccccc2)C2CC2)n1 (centres unmarked) [CBK176042],101.983
13,O=C(O)CC1SC(Nc2cc(C(F)(F)F)cc(C(F)(F)F)c2)=NC1=O (centres unmarked) [CBK059095],82.7231
14,Cn1ncc(C#N)c1NC(=O)C1CC(c2ccc(Cl)c(Cl)c2)=NO1 (centres unmarked) [CBK267478],92.4921
15,O=C(/C=C/c1ccc2c(c1)OCO2)N1CCN(C(=O)c2ccco2)CC1 [CBK144459],94.429
16,O=C(O)c1ccc(NS(=O)(=O)Cc2ccccc2[N+](=O)[O-])cc1 [CBK034054],106.669
17,COCC(C)NCc1ccccc1C (centres unmarked) [CBK027852],69.0995
18,COc1ccc(NC(=S)NC(=O)CN2C(=O)c3ccccc3C2=O)c([N+](=O)[O-])c1 [CBK267594],90.2233
19,O=C(CN1CCCC1)NC1CCCc2c1cnn2-c1ccc(F)cc1 (centres unmarked) [CBK283930],82.4137
20,COc1ccc(Nc2cc(Cl)ccc2C(=O)NC(C)(C)CN2CCOCC2)cn1 [CBK107436],93.3272
21,Nc1nc2n(n1)C(c1ccccc1)C1=C(CCCC1)N2 (centres unmarked) [CBK287949],101.897
22,Nc1nnc(Sc2nc3ccccc3nc2C(F)(F)F)s1 [CBK093795],93.6474
23,CNC(=O)c1cc(-c2cccc(C)c2)oc1C [CBK047432],95.485
24,CC(C)[C@@H](CO)Nc1cncc(-c2ccc(F)cc2F)n1 [CBK065875],106.785
25,O=C(c1ccc(F)cc1)C1CCN(Cc2cc(=O)[nH]c(=O)[nH]2)CC1 [CBK149132],87.3079
26,Cc1noc(C)c1CN(C)C(C)C(=O)Nc1nccs1 (centres unmarked) [CBK304826],36.3642
